The values that follow come from the supplement of paper PMC11417369.

± gives the standard deviation of the averaged measurements. This is one part of the list.

This assay deals with PfAP2-LT AP2 domain (GST-tagged). The assay is described as follows: gcPBM binding intensity (ln(normalized median fluorescence intensity)); higher = stronger DNA binding. In short, it runs like this:
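Binding intensity is defined as the maximum Masliner-normalised natural-log median intensity across replicate spots for either probe orientation. It was measured on an Agilent 4 × 180k array of primer-extended double-stranded 36-bp intergenic genomic probes and negative controls, to which GST-tagged P. falciparum DNA-binding domains made in E. coli were applied for 1 h in 1× PBS with 1% milk, 0.2 mg/ml BSA, 0.5% salmon testes DNA and 0.03% Triton X-100. Detection was by Alexa488 anti-GST antibody and scanning at 488 nm.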
With “TTTATATTATTATATCTTATTAATTATTTATCATTT [TGCATGCA_negctrl_site73]”, the “gcPBM binding intensity (ln)” value stood at 8.56 ± 0.69.

With “TGATGCAAAATATATACACACATATATATATATATA [CACACA_site3052]”, the “gcPBM binding intensity (ln)” value was 9.91 ± 0.33.

Regarding “CATATACATTGTATATGTACATATATATATATATAT [XGTACX_site3772]”, the “gcPBM binding intensity (ln)” value came out at 9.5 ± 0.071.

On to “GATTATATATTAAAAAGTACTTTATAAATACTTCTA [XGTACX_site8992]”, for which the “gcPBM binding intensity (ln)” value came to 8.41 ± 0.42.

For the sequence “CAAAGCATAGTATGATGTACAAATGTTCCTATAATA [XGTACX_site8642]”, the “gcPBM binding intensity (ln)” value is 8.89 ± 0.55.

As to “ATATATATATAATATTGTACATAGTAGACATCACAC [XGTACX_site4649]”, the “gcPBM binding intensity (ln)” value worked out at 9.11 ± 0.38.

Take “TCTTATTATAAAAGGAGTACATCAATTAGATGTTCC [XGTACX_site8465]”: the “gcPBM binding intensity (ln)” value amounted to 8.39 ± 0.45.

For the sequence “TAAAATATGGAAATCACACATTTATTAAAATATATA [CACACA_site4623]”, the “gcPBM binding intensity (ln)” value was determined as 8.48 ± 0.5.

For the sequence “TATATATGTATAAGAGTGCATATGCATATATGTATA [GTGCAC_site9692]”, the “gcPBM binding intensity (ln)” value is 9.03 ± 0.39.

With “TTATGTTTATACACTACACACATTATTCATAAAAAA [CACACA_site4637]”, the “gcPBM binding intensity (ln)” value amounted to 8.71 ± 0.34.

For the sequence TATGGGTTTATATAGGTGCAATATATGTATATATAA, the “gcPBM binding intensity (ln)” value turned out to be 8.62 ± 0.39.

As for “TATACCACCCGATATACACACTTGTAGACATCTTTT [CACACA_site4268]”, the “gcPBM binding intensity (ln)” value was 9.02 ± 0.33.

Regarding “AGCAATATTTATTAAAGTACGTAAAAAAAATTCTCA [XGTACX_site6550]”, the “gcPBM binding intensity (ln)” value was determined as 8.6 ± 0.53.

With AACCATTGGGAAAGGGTGCACATATATATATATATA, the “gcPBM binding intensity (ln)” value worked out at 10.09 ± 0.099.

As to “TATATAGTTTATATTTGTACATATAGACATTTATAA [XGTACX_site6414]”, the “gcPBM binding intensity (ln)” value is 8.46 ± 0.45.

For the sequence “ACAAAACTCTTTAATTGTACAAATATAATATAAAAA [XGTACX_site5690]”, the “gcPBM binding intensity (ln)” value is 8.71 ± 0.35.

“TATTGTATATAATAAACACACAATATTAAAAATATA [CACACA_site1057]”: the “gcPBM binding intensity (ln)” value amounted to 8.78 ± 0.4.

Turning to “TATTTAAAAAACACATGTACGAGTATTATATATAAA [XGTACX_site6654]”, the “gcPBM binding intensity (ln)” value came to 8.62 ± 0.4.

As for “AGTATATTAAAAAATACACACGTATTATATCTACAT [CACACA_site8844]”, the “gcPBM binding intensity (ln)” value came to 9.02 ± 0.45.

Take “GTTCATAAATTAAACACACACACACCGCTGGATACC [CACACA_site5779]”: the “gcPBM binding intensity (ln)” value came out at 9.77 ± 0.16.

On to “TAATATACTTAATACACACACGAATATTTATAAATA [CACACA_site6675]”, for which the “gcPBM binding intensity (ln)” value is 9.11 ± 0.34.

Take “AAACTCAACTTATATACACACAATCTTTTTTTTTTA [CACACA_site29]”: the “gcPBM binding intensity (ln)” value amounted to 8.74 ± 0.35.

“CCCCTCGAAATAATTTGTACGAATATATTGTCTGTA [XGTACX_site8308]”: the “gcPBM binding intensity (ln)” value was 9.22 ± 0.14.

For “GATTCATCTAAACACCGTACATATTATATATATATA [XGTACX_site6030]”, the “gcPBM binding intensity (ln)” value stood at 8.95 ± 0.15.

“TTAATTCGTACATACACACGCACATATATATATATA [CACACA_site1469]”: the “gcPBM binding intensity (ln)” value turned out to be 9.695 ± 0.05.

Regarding “ATTGGAAAATATGTTATATATATATATATATATATG [CACACA_negctrl_site116]”, the “gcPBM binding intensity (ln)” value was 9.05 ± 0.35.

As for “ATATTTTTTTTCTACACACATACAAATATATATTAT [CACACA_site2359]”, the “gcPBM binding intensity (ln)” value stood at 9.11 ± 0.39.

“AATAATAATAGAAACACACACACATCTTTAATAATA [CACACA_site4805]”: the “gcPBM binding intensity (ln)” value is 9.895 ± 0.092.

For the sequence “TTATAACATCTTAAATGTACAAATATGTGCTTATTT [XGTACX_site7285]”, the “gcPBM binding intensity (ln)” value came to 8.76 ± 0.46.

On to “ATATTAAAATACAGTGCATGTTAAAAATATATTATA [TGCATGCA_site977]”, for which the “gcPBM binding intensity (ln)” value was 8.87 ± 0.47.

With “AATAAAAGTTCACCTGTACACACATATATATATGTA [CACACA_site8500]”, the “gcPBM binding intensity (ln)” value is 9.19 ± 0.44.

Regarding “TAAAAAAAAAACATCTGTACCAATTTTTATGTATAA [XGTACX_site5196]”, the “gcPBM binding intensity (ln)” value worked out at 8.31 ± 0.48.

Take “ATGTATTTATATACTTGTACGTAAGATGTATTATAT [XGTACX_site908]”: the “gcPBM binding intensity (ln)” value is 8.87 ± 0.37.

For the sequence “GGTTATAACGCACATGCACACGTAAATAAATATTAT [CACACA_site9277]”, the “gcPBM binding intensity (ln)” value came out at 9.34 ± 0.33.

Consider “TAAATTTTAATAAATACACACAAATTTTAATTCTAT [CACACA_site6039]”, for which the “gcPBM binding intensity (ln)” value amounted to 8.55 ± 0.4.

On to “CTTTTTCGCATGAAAAGTACATGAAATATATTACAT [XGTACX_site8971]”, for which the “gcPBM binding intensity (ln)” value was found to be 8.58 ± 0.38.

As for “ACATGCAACCATTCGGGTACAGAAATAAATATATAC [XGTACX_site4174]”, the “gcPBM binding intensity (ln)” value is 9.09 ± 0.38.

“AATAACTTTTTAAACACACACACATATAAATAAATA [CACACA_site6196]”: the “gcPBM binding intensity (ln)” value is 9.54 ± 0.18.

For “ATACACTTAATATTATGTACATATATAAAAAAAATA [XGTACX_site1500]”, the “gcPBM binding intensity (ln)” value was found to be 8.76 ± 0.36.

Consider “TATATTTAAATTCTTTCAAATCATGTTGTAATTTTT [CACACA_negctrl_site1349]”, for which the “gcPBM binding intensity (ln)” value worked out at 8.42 ± 0.45.

Turning to “AATTGTATGTATGCCTGTACATATGTCTATCTTAAG [XGTACX_site1927]”, the “gcPBM binding intensity (ln)” value was determined as 9.05 ± 0.43.

In the case of “ATTTATTTATTTTTTTGTACTTATAATTTTTATTAT [XGTACX_site2656]”, the “gcPBM binding intensity (ln)” value stood at 8.83 ± 0.51.

For the sequence “TATTTTATATGAGGCACACAAATTTTAATTGTTATT [CACACA_site725]”, the “gcPBM binding intensity (ln)” value was determined as 8.66 ± 0.54.

For “TATAAAAATAATATTACACACATGTAAAATGGGGGT [CACACA_site9071]”, the “gcPBM binding intensity (ln)” value came out at 9.53 ± 0.13.

Turning to “AGGAATATCGAAAACTGTACTTGTATGTTTCATAAA [XGTACX_site6143]”, the “gcPBM binding intensity (ln)” value was found to be 8.71 ± 0.4.
